Data taken from the supplement of paper PMC10126150.
Values marked as one replicate rest on one cluster of the flow cell; about a third of the high ones do not repeat.

System: ATP
Assay: switch fluorescence ratio, 500 uM ATP over buffer (Cy3 cluster intensity, sum of 5 cycles each) (fold (ratio)); higher = stronger signal-on switching upon ATP binding; sequences stand for … in TCGTCGGCAGCGTCAGATGTGTATAAGAGACAGTTTTTTTTTTTTTTTTTTTTTTTTT…TC
Details: aptamer strand: ATP DNA aptamer (quencher-CACCTGGGGGAGTATTGCGGAGGAAGG + anchor), 100 nM annealed; ATP concentration: 500 uM; one replicate
Summary of the method: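 Per cluster, summed Cy3 intensity from the target cycles was divided by that from the buffer cycles to give the fluorescence ratio, then averaged per switch-domain sequence. Clusters outside 100-1000 RFU were excluded. The Cy3-labelled switching-strand clusters, on a modified Illumina MiSeq flow-cell, were annealed to 100 nM quencher-labelled ATP aptamer and imaged in selection buffer, then after 15 min with 500 uM ATP at 22 °C, for five cycles with NaOH stripping and re-annealing between them.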
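Note: ATP exposure 15 min at 22 °C before imaging.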

Sequence | switch fluorescence ratio
ACTAAAAGTT | 1.01
GAGCAGGGTT | 1.01
CAATGAACAA | 0.988
CAAGGCCGCG | 1.05
TTGACTGTCG | 0.954
TAATACTGCG | 1.01
CACAGACGGG | 1.25
AAATTAGCGC | 0.974
CTTTGTCTTG | 0.942
GCCCAATGGC | 0.979
ATGCCTCGTC | 1.05
CATATGTCTT | 1
GTTCAGAAGG | 1.02
TCTGGTAAAT | 1.02
TTATTCTTGG | 0.999
CAACTTCTCA | 1.01
TAATCGGATA | 0.964
ATTTATATGA | 1
GTTTGAAACC | 1.01
TACCCTGCTT | 1.06
TAGATGACGT | 1.02
TCAAGCGCGA | 1.14
GGGGAGAGCT | 0.957
TAGGACTCC | 1.07
CACAATTTTG | 1.01
GTGTTTTTAT | 0.998

Sequence | switch fluorescence ratio
AATATTCCTC | 1.14
GTATACAAAC | 1
GGTTGCGGG | 0.926
AGGGCAGGCG | 0.839
TGGGTAAGA | 0.95
TTAGTAACCA | 1.01
AGATAGGACC | 1.01
TAAAAAGCTT | 0.988
AGGTCTGTGA | 0.999
TTGAGCGCAT | 1.21
ATTCGGTATT | 0.967
TTGCGATTGG | 1.01
AGCCCCCCCG | 1.16
GTCGGGTTGG | 1.01
CGAACGTAGC | 1.58
AAGCCTTCTG | 1.04
CACTCGGGGC | 1.03
CTACAGGAGT | 1.02
GGTTAAGCAG | 1.12
TATCGGAAAA | 1
ACCGACAGCT | 1.46
TTGTTTG | 1.02
CAGAGAAGAC | 1.07
GATCTCACGG | 0.989
ATTATTAGCC | 0.998
CCCGGCAGAC | 3.04

Sequence | switch fluorescence ratio
GGATGACAAG | 1.05
TGGTAATCGG | 0.952
GCGGATGGT | 0.964
CCACGATTTT | 0.968
CGGCGGCCGG | 1.01
TTGCGTGCTA | 1.01
GTTAGAGCTT | 1.01
CGCTGGTCGT | 0.987
TAACGCGTC | 0.995
TATAGACGG | 0.959
TTCTGGAGAT | 1.01
GCGTCTGTGT | 0.996
GATCGCTCCG | 1.05
GTGCCTCTT | 1.01
GTAGTGGTAT | 0.995
AGTTACCTTC | 1.4
AATCTACTCG | 0.986
TATCCTGTA | 1.05
GCGTAAGTAA | 0.98
ACGGCTCTCG | 0.997
CACTTAGGCG | 1.02
GTTCACGGTC | 1.02
AGTCTGGATT | 1.02
GTCATTAGCT | 1.02
CGGTGGTTAT | 1.01
GCACATTTGG | 1

Sequence | switch fluorescence ratio
GTTTCTAATA | 0.986
TCACCCACCT | 1.17
GCCCTATGAC | 0.976
GCGGGCAACT | 1.01
CGATTAGTGG | 0.974
TCAAACCATC | 1.01
AGGAAGTAGC | 1.03
AGGATAGGAC | 0.963
TCAAATTTT | 1.04
TTTCAGACTA | 1
TTTGAACGTA | 1.03
ACTTGAGGAG | 0.989
TCATTCAAG | 1.01
CGATCTCTTG | 1
ATTATTATGA | 0.987
CCGTAACTTT | 1.15
ACGTCTAGTA | 1
ATGATGTAAA | 0.994
AAACAGGCAT | 0.998
ATGTGGATCA | 1.01
CCTGGTTCTC | 1.07
ACAATGTGAC | 1.04
GGTGCCGCAC | 1.05
AAATATCTTT | 0.979
CCTCTTATGT | 1.04
CAGAGGAGCA | 0.997

Sequence | switch fluorescence ratio
CTATGACAAA | 1.03
GTTTTAAGT | 0.994
ATGAATTTCA | 0.96
TCGCAGGCTA | 1.16
ACCAGGCTAC | 1.19
ATCCGGCCTA | 1.1
GCGGGCTTC | 1.03
AATAAAACAC | 1.03
ATTATTTCGA | 0.976
ACATCCTCGT | 1.02
TTCGCCCGGG | 0.949
CATTGGACCG | 1.09
AAATGCAGAA | 1.02
GTTGGCGGCG | 0.979
TTTGTCTCCA | 1
TCTCTTTTTC | 1.78
AGGAAGGAG | 1.02
TAATGTTCCG | 0.991
TGTGAAAAT | 1.01
GATCTGCGGC | 1.08
TTTGTGGAAG | 1.01
TTGATTGCA | 0.988
GCTATCCTTA | 0.992
CGGGCAGCTT | 1.03
ATTGAGACCC | 1.02
CAGGACATCG | 1.08

Sequence | switch fluorescence ratio
GTCGAGTTGG | 0.995
AAGTTAAGCG | 0.955
CGAAAGGCCC | 0.957
GTCTTAACGC | 0.983
CGAATAGGAC | 1.03
TCGAGGGACA | 1.09
AAAATGACGA | 1.01
CTACAATAGG | 1.05
GGAAAAATTA | 0.98
AAGCGGGTAC | 1.16
TGGGACGAAG | 0.957
AGAGATGGGC | 0.98
AGAAGCTCCC | 1.14
TTAGGCTGGA | 1.04
AAGAGTGGGC | 1.03
TGATGTTTG | 1.02
AGGAAGGTAA | 1.02
CACTTACAGC | 1.21
TTGGGACGAG | 1.01
AGTATTTGAA | 0.927
AGGGAATTCG | 1.01
GCGTAAGGTC | 1.04
GGGAACCGCA | 1.08
